# Assay results reported in PubChem BioAssay (NCI).
# Several values for one entry are separate records, joined by “and”; a condition that tells them apart may be missing. Equal values may be shown once.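 Compound exposure: 48 hours, 5 concentrations, 96-well plates. At the GI50, growth is halved. TGI is the concentration that stops growth completely.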
# System: NCI-H322M lung
# Assay: NCI-60 cell line screen, 48 h
Structure (SMILES),TGI,GI50
CSC(=N/N=C(\C)c1ccc(S(=O)(=O)N(C)c2ccccc2)cc1)SC,> 100 µM,–
CCN(CC)CCC1(C(=O)OC)SCCc2ccc(C)cc21 (configuration not stated),> 100 µM,–
CCOc1c(Cc2ccccc2)c(=O)n2c3ccccc3n3c(=O)n(C)c(=O)c1c23,> 100 µM,–
Cc1cnc2cc(Cl)ccc2c1SCC(=O)O,> 100 µM,–
Cc1nc2ccccc2nc1N1CCCC1,> 100 µM,–
O=c1cc(-c2ccccc2)[nH]c2c(F)ccc(F)c12,> 100 µM,–
C[C@@H]1CC(=O)[C@@]2(C)[C@](O)(CCC3O[C@]32C)[C@@]12CC(c1ccoc1)OC2=O (some centres not stated),> 100 µM,–
Cc1nc(=O)n2c(c1C(=O)Nc1ccc(Cl)cc1)NCCC2,> 100 µM,–
COc1ccc2c(-c3csc(-c4c[nH]c5ccccc45)n3)c[nH]c2c1,> 45.6 µM,–
CC(=O)OCC12C(OC(C)=O)C[C@@H](C)C3(CC(c4ccoc4)OC3=O)C1CCC(OC(C)=O)C21CO1 (some centres not stated),> 100 µM,–
COc1ccc(OC)c([N+](=O)[O-])c1-c1nc2sc(C)cn2c1/C=N/N=C(N)N,32.6 µM,–
Cc1nc2cccc(F)c2c(=O)n1-c1nnc(C2CC2)s1,> 10 µM,–
COc1cc(C2CC(c3cc(Cl)c(C)cc3O)=NN2c2ccc(S(N)(=O)=O)cc2)cc(OC)c1OC (configuration not stated),12.6 µM,2.86 µM
O=C(Nc1ccccc1C(=O)O)C(=Cc1ccccc1O)NC(=O)c1ccccc1,> 100 µM,–
COc1ccc(C2=C(N)c3cc(OC)ccc3C2=O)cc1,> 100 µM,–
COc1ccc(CN[C@H]2CCc3cc(OC)c(OC)c(OC)c3-c3ccc(SC)c(=O)cc32)c(OC)c1OC,> 100 µM,< 0.01 µM
O=C1CSC(c2cc3cc(Br)ccc3nc2Cl)N1c1ccc(F)c(Cl)c1 (configuration not stated),> 50 µM,–
Cc1cnc2[nH]c(-c3sccc3C)cc(=O)c2c1,> 100 µM,–
CC(C)=CCCC1(C)C=Cc2c(ccc3c2[nH]c2cc(O)c(C)cc23)O1 (configuration not stated),16.1 µM,6.66 µM
O=C1NC(=Nc2ccccc2Cl)SC1C(=O)Nc1ccc([N+](=O)[O-])cc1[N+](=O)[O-] (configuration not stated),> 100 µM,–
C[C@@H]1CC[C@H]2C(CN(C)CC3=C(C(F)(F)F)O[C@@H]4O[C@@]5(C)CC[C@H]6[C@H](C)CC[C@@H]3[C@@]46OO5)=C(C(F)(F)F)O[C@@H]3O[C@@]4(C)CC[C@@H]1[C@]32OO4,> 100 µM,> 75.2 µM
[O-][n+]1cc(SCc2ccccc2)ncc1SCc1ccccc1,> 10 µM,–
COc1cc(OC)cc(-c2nc3ccccc3c(=O)[nH]2)c1,> 100 µM,–
O=[P+](O)c1cc2c3ccccc3ccc2c2ccccc12,> 100 µM,–
COC(=O)C12CC(NC(=O)c3csc([C@@H](C[C@H](C(C)C)N(C)C(=O)[C@@H](NC(=O)[C@H]4CCCCN4C)C(C)C)OC(C)=O)n3)(C1)C2,> 33.3 µM,0.0306 µM and 0.00333 µM
O=C(OCC(OC(=O)c1ccccc1)C1CC(C(O)C2CCCCC2)C(=O)O1)c1ccccc1 (configuration not stated),> 100 µM,–
COc1ccc(C(=O)C(CN(C)C)c2ccccc2)cc1 (configuration not stated),32.2 µM,15.8 µM

Structure (SMILES),TGI,GI50
CN1CCN(C2CC(=O)c3c(Cl)sc(Cl)c32)CC1 (configuration not stated),> 53.4 µM,–
NC(=S)c1cn(C2OC(CO)C(O)C2O)c2ncnc(N)c12 (configuration not stated),5.82 µM,0.209 µM
O=C(O)CNCc1c2ccccc2nc2ccccc12,> 100 µM,–
Cc1cc(S(=O)(=O)Nc2n[nH]c(N)n2)c(S)cc1Cl,> 10 µM,–
N#Cc1c(NC(=S)Nc2ccccc2)sc2c1CCCC2,> 100 µM,–
O=C1CCC(=O)C(C(=O)CCC(=O)Nc2ccc(Cl)cc2)C1 (configuration not stated),> 100 µM,–
O=C1CSC2=NC3=C(COC/C3=C\c3ccc(F)cc3)C(c3ccc(F)cc3)N12 (configuration not stated),> 100 µM,–
CC1CC(=O)CC[C@@H]1OCc1ccccc1 (some centres not stated),> 100 µM,–
CO/C=C(/C(=O)OC)c1ccccc1[C@H]1C[C@@H]1c1ccccc1,> 100 µM,–
O=C(Nc1ccc(Oc2cccc(Cl)c2)c(Cl)c1)c1cccnc1,> 50 µM,2.97 µM
COc1ccc(-c2nc3ncccn3c2-c2ccc(S(C)(=O)=O)cc2)cc1,> 100 µM,–
CCN(Cc1cccc(C)c1)c1ccc(CO)c(Cl)c1,24.2 µM,11.1 µM
NS(=O)(=O)c1ccc(NS(=O)(=O)c2ccc(NC(=O)N(c3ccccc3)c3ccccc3)cc2)cc1,> 100 µM,–
CC1CCCc2c(CC3CC(=O)NC(=O)C3)nc(N)nc21 (configuration not stated),> 100 µM,–
CCC1C(=O)OCc2c1cc1n(c2=O)Cc2ccccc2-1 (configuration not stated),> 100 µM,–
CCN(CC)Cc1cc(Nc2c3ccc(Cl)cc3nc3c(C)cccc23)ccc1O,3.91 µM,1.82 µM
CCOC(=O)CCC(NC(=O)c1ccc(Nc2nc3cc(N)cc(N)c3nc2-c2ccccc2)cc1)C(=O)OCC (configuration not stated),> 100 µM,> 64.8 µM
c1ccc2c(c1)[C@@H]1O[C@@H]1[C@@]13O[C@@]21[C@H]1O[C@H]1c1ccccc13,35.6 µM,–
CCn1c(-c2nonc2N)nc2c(C#CC(C)(C)O)ncc(OCC3CCNCC3)c21,> 25 µM,> 17.9 µM
NC(=O)c1ccc(S(=O)(=NS(=O)(=O)c2ccccc2)c2ccc(C(N)=O)cc2)cc1,> 100 µM,–
COc1cc2cc(Oc3ccc(NC(=O)Nc4cc(C(F)(F)F)cc(C(F)(F)F)c4)cc3)c(C)nc2cc1OCCN1CCCCC1,3.08 µM,1.67 µM
O=C(c1cccs1)N(C(=O)N1CCCCC1)c1ccccc1,> 100 µM,–
COC(=O)[C@@H](C)C[C@H](Cc1ccccc1)NC(=O)c1csc([C@@H](C[C@H](C(C)C)N(C)C(=O)[C@@H](NC(=O)CN(C)C)C2CC2)OC(C)=O)n1,> 16.5 µM,0.101 µM
Clc1cc(-c2csc(Cl)c2)cs1,> 100 µM,–
N#CC(NNC(=O)c1c(Cl)c(Cl)c(Cl)c(Cl)c1-c1nc2ccc(C(=O)c3ccccc3)cc2[nH]1)c1cccc(Oc2ccccc2)c1 (configuration not stated),> 100 µM,–
Nc1nc(Cl)cc(NCC2CC(O)(CO)C2)n1 (configuration not stated),> 100 µM,–
